# Test results published in PubChem BioAssay (NCATS).
# This list was built around the results that the source calls inconclusive (neither active nor inactive); the mix of calls is not that of the screen. For some of these results: No potency is given beside an inconclusive call; the fits are too rough. Calls of active or inactive are those of the source. Unless noted, calls follow the shape of the dose curve; as a rule, active = well fitted curve in the direction sought with a large enough effect; inconclusive = small, poorly fitted or top-dose-only effect, or another doubt; inactive = no such curve, though single readings can be large; an effect the other way counts as inactive or inconclusive.
# Experiments:
# [1] = target: Calcium and integrin-binding protein 1 (Homo sapiens) (UniProt Q99828); test: Primary qHTS for Identification of Calcium Integrin Binding Protein 1 (CIB1) Competitor (AID 1508620); also: potency is read from the fitted curve at half-maximal effect;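 as to activity change, negative = inhibition: GST tagged CIB1 binding a fluorescein labelled alphaIIb integrin peptide tracer; top concentration of the series differs between compounds; % is scaled to controls: 0 for no effect and ±100 for the full control effect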
# Outline: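 Fluorescence polarization competition: CIB1-GST (1 uM final) preincubated with compound 15 min at room temperature, then FITC-labeled alphaIIb peptide (100 nM final) added for another 15 min. Polarization read at Ex 480/Em 540.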
# [2] = target: Peroxisome proliferator-activated receptor gamma (Homo sapiens) (UniProt P37231); test: qHTS assay for small molecule antagonists of peroxisome proliferator-activated receptor gamma signaling (AID 588537; active = well fitted inhibition curve with a large enough effect in the signal ratio, with a control signal flat, not every such curve was filed as active; inconclusive = small, poorly fitted or top-dose-only effect, or effect the other way, or a change in a side signal; the % refers to the signal ratio;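 also: reporter cells co-stimulated with 50 nM rosiglitazone agonist during compound treatment; % of control where 0% means no effect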); conditions: HEK293 PPARg-UAS-bla, beta-lactamase ratio, antagonist mode; activity, negative = inhibition: at 76.8 µM (top of the series)
# Outline: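 PPAR-gamma-UAS-bla HEK293 cells (3000/well, 1% charcoal/dextran-stripped FBS) were preincubated 6-6.5 h at 37 C, given titrated compounds, then stimulated with 50 nM rosiglitazone for 16 h. Beta-lactamase activity was read with CCF4 dye; IC50 came from Hill fits.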
# [3] = qHTS assay for small molecule agonists of the antioxidant response element (ARE) signaling pathway (AID 651741; active = well fitted activation curve with a large enough effect in the signal ratio; inconclusive = small, poorly fitted or top-dose-only effect, or effect the other way, or a change in a side signal; the % refers to the signal ratio; also: % of control where 0% means no effect); conditions: HepG2 ARE-bla reporter, beta-lactamase FRET ratio, 16 h; activation: at 96 µM (top of the series)
# Outline: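 ARE-bla HepG2 cells (beta-lactamase reporter under ARE control) were plated at 2,000 cells/well, preincubated 5 h at 37 C/5% CO2, then treated with DMSO-dissolved compounds for 16 h at 37 C; LiveBLAzer B/G FRET substrate added, fluorescence read after 2 h at room temperature.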
# [4] = qHTS assay to identify small molecules that stimulate interleukin-8 (IL-8) secretion (AID 651758; active = well fitted activation curve with a large enough effect in the signal ratio; inconclusive = small, poorly fitted or top-dose-only effect, or effect the other way, or a change in a side signal; the % refers to the signal ratio; also: 0% is about no effect); conditions: HTRF ratio (665/615); activation: at 92.2 µM (top of the series)
# Outline: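 THP-1, 2000 cells/well; cpd 16 h, 37 C; add cryptate + XL665 anti-IL-8 Abs; RT 1-3 h; TR-FRET read.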
# [5] = target: Cytochrome P450 1A2 (Homo sapiens) (UniProt P05177); test: p450-cyp1a2 (AID 410; calls by dose curve; also: potency is read from the fitted curve at half-maximal effect;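 as to activity change, negative = inhibition: top concentration of the series differs between compounds; -100% = full effect of reference inhibitor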)
# Outline: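 Human CYP1A2 (20nM) demethylated Luciferin-ME at its Km (100uM) in 100mM KPO4. After 10 min compound preincubation, NADPH regeneration ran the reaction 60 min at room temperature. Luciferin was read by luminescence, normalized to 57 uM furafylline.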
# [6] = qHTS Assay for Lipid Storage Modulators (AID 1519; calls by dose curve; also: % is scaled to controls: 0 for no effect and ±100 for the full control effect); conditions: Drosophila S3 cells, BODIPY lipid droplet/cell ratio, laser cytometry, cells loaded with oleic acid; activity change, negative = inhibition: at 57.5 µM (top of the series) unless noted
# Outline: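 Cells seeded at 5,000 per well were treated with compounds over a concentration series and loaded with oleic acid (400 uM, as added). Lipid droplet fluorescence (488 nm excitation, 500-530 nm channel) was read by laser-scanning cytometry and normalized to 20 uM Triacsin C.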
# JCK = test: qHTS profiling for inhibitors of Plasmodium falciparum proliferation (AID 504749); also: nearly all actives have a fitted effect of over 60% in size; also: potency is read from the fitted curve at half-maximal effect;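 as to activity, negative = inhibition: 0% = DMSO vehicle and full inhibition = artemisinin control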; conditions: P. falciparum in erythrocytes, SYBR Green DNA, 72 h; series mostly up to 28.7 µM
# Outline: (§1)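 P. falciparum-infected erythrocytes (0.3% parasitemia, 2.5% hematocrit final) were exposed to compounds for 72 h at 37 C in 5% CO2, then lysed with SYBR Green buffer overnight at room temperature; parasite DNA fluorescence was normalized to artemisinin and DMSO controls.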
# PC49 = test: as above; conditions: P. falciparum in erythrocytes, SYBR Green DNA, 72 h; series mostly up to 28.7 µM
# Outline: as §1
# [7] = Primary qHTS for inhibitors of La Crosse Virus (LACV) - induced cell death in SH-SY5Y cells (AID 1508616); also: potency is read from the fitted curve at half-maximal effect;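 as to activity change: top concentration of the series differs between compounds; 0% = infected DMSO wells and 100% = uninfected DMSO wells; higher means more rescue of cells from virus-induced death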
# Outline: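 Luminescent ATP readout (ATPLite 1step, 5 min room temperature) measured rescue from LACV-induced death after 6 days of infection at 0.01 MOI; normalized to infected DMSO wells and uninfected DMSO wells.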
# [8] = qHTS for differential inhibitors of proliferation of Plasmodium falciparum line W2 (AID 1883); conditions: Potency: Plasmodium falciparum W2 proliferation inhibition;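 also: parasites grown with compound for 72 h before lysis and staining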; also: potency is read from the fitted curve at half-maximal effect;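 as to activity change, negative = inhibition: 0% = vehicle wells and -100% = control inhibitor wells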
# [9] = qHTS for differential inhibitors of proliferation of Plasmodium falciparum line HB3 (AID 1886); conditions: Potency: Plasmodium falciparum HB3 proliferation inhibition;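 also: parasites grown with compound for 72 h before SYBR Green readout; plate controls were vehicle for no effect and reference inhibitor for full effect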
# [10] = target: Phospholipid hydroperoxide glutathione peroxidase GPX4 (Homo sapiens) (UniProt P36969); test: Primary qHTS Assay for Inhibitors of Recombinant Selenoprotein Glutathione Peroxidase 4 (GPX4) (AID 1845192); conditions: activity change, negative = inhibition: at 50 µM (top of the series) unless noted; also: potency is read from the fitted curve at half-maximal effect; nearly all actives have a fitted effect of over 65% in size
# Outline: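 GR-coupled readout: 100 nM GR, 1 mM GSH, 0.5 mM NADPH; NADPH fluorescence (ex 340/em 450 nm) read at t=0 and after 15 min RT. GPX4 200 nM, preincubated 30 min with compound; substrate 0.5 mM CHP.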
# [11] = qHTS of pediatric cancer cell lines to identify multiple opportunities for drug repurposing: Primary screen for TC32 cells (AID 1347089); also: % is scaled to controls: 0 for no effect and ±100 for the full control effect; nearly all actives have a fitted effect of over 60% in size
# Outline: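 Luminescent ATP read-out (CellTiter-Glo) of metabolically active TC32 cells after 48 h exposure. Concentration-response curves came from 11-point (MIPE, 0.78 nM–46 µM) or 8-point (NPC, 0.59 nM–46 µM) primary titrations; follow-up used 11 points.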
# CP262 = test: qHTS profiling for inhibitors of Plasmodium falciparum proliferation (AID 504749); also: nearly all actives have a fitted effect of over 60% in size; also: potency is read from the fitted curve at half-maximal effect;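 as to activity, negative = inhibition: 0% = DMSO vehicle and full inhibition = artemisinin control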; conditions: P. falciparum in erythrocytes, SYBR Green DNA, 72 h; series mostly up to 28.7 µM
# Outline: as §1
# [12] = qHTS for differential inhibitors of proliferation of Plasmodium falciparum line 7G8 (AID 1815);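 also: parasite growth measured after three days of incubation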; also: potency is read from the fitted curve at half-maximal effect;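 as to activity change, negative = inhibition: plate controls were vehicle wells for no effect and reference inhibitor wells for full effect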
# [13] = Cytometry Cell-Based qHTS for Inhibitors of the mTORC1 Signaling Pathway in MEF cells (AID 2668); also: potency is read from the fitted curve at half-maximal effect;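 as to activity change, negative = inhibition: Tsc2-/- p53-/- mouse embryonic fibroblasts stably re-expressing wild-type Tsc2; percent cells positive for phospho-rpS6 Ser235/236 relative to propidium iodide stain; plate controls were DMSO wells for no effect and 7.5 nM rapamycin control wells for full effect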
# Outline: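 Phospho-rpS6 (Ser235/236) immunofluorescence over PI signal, scored as % positive cells using thresholds from 7.5 nM rapamycin and DMSO wells, after 24 h compound exposure of WT-Tsc2-rescued Tsc2-/-, p53-/- MEFs. PI cell count recorded for viability.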
# [14] = system: Zika virus NS2B-NS3 protease (unlinked complex); test: Primary screen GU Rhodamine qHTS for Zika virus inhibitors: Unlinked NS2B-NS3 protease assay (AID 1347159); conditions: Recombinant ZIKV NS2B-NS3 protease, Rhodamine110 substrate fluorescence; activity change, negative = inhibition: at 107 µM (top of the series); also: nearly all actives have a fitted effect of over 60% in size; also: potency is read from the fitted curve at half-maximal effect; as to activity change, negative = inhibition: % is scaled to controls: 0 for no effect and ±100 for the full control effect
# Outline: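 Noncovalent NS2B hydrophilic domain–NS3 protease domain complex (25 nM) preincubated 15 min at room temperature with compounds (up to 114 microM) in 10 mM Tris-HCl pH 8.0, 0.01% Tween 20; 1.5 microM Rhodamine110 substrate added, fluorescence change over 15 min fitted to Hill equation.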
# [15] = Stat Signaling Pathway (AID 446; active = well fitted curve in either direction with a large enough effect, not every such curve was filed as active; inconclusive = small, poorly fitted or top-dose-only effect, or another doubt;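 also: ME-180 cervical cancer cells given 40 pM IL-6 alongside compound; SIE-controlled beta-lactamase reporter measured as 460/530 nm FRET emission ratio; top concentration of the series differs between compounds; % is scaled to controls: 0 for no effect and ±100 for the full control effect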); conditions: ME-180 SIE beta-lactamase reporter, IL-6 stimulated, 5 h
# Outline: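 ME-180 SIE-bla cells; overnight plating; cpd + IL-6 40 pM, 5 h, 37 C; LiveBLAzer 2.5 h RT; 460/530 nm emission ratio. Normalized to 300 pM IL-6 and 125 nM JAK inhibitor controls.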
# [16] = qHTS Assay for Identification of Small Molecule Agonists for Thrombopoietin (TPO) Signaling Pathway (AID 917); also: potency is read from the fitted curve at half-maximal effect
# Outline: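 Reporter: GpIIb promoter–luciferase in murine Ba/F3 expressing human TPO receptor. Pre-starved of IL-3 overnight; compounds with 26 pM TPO, 24 hrs, 37 C/5% CO2; luminescence read.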
# [17] = target: Endonuclease 4 (Escherichia coli (strain K12)) (UniProt P0A6C1); test: Counterscreen for APE1 Inhibitors: qHTS Validation Assay for Inhibitors of Endonuclease IV (AID 1708); also: potency is read from the fitted curve at half-maximal effect
# Outline: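 2 nM enzyme was preincubated with compounds for 15 min at room temperature in 50 mM Tris-HCl pH 7.5, 50 mM NaCl, 2 mM MgCl2, 1 mM DTT, 0.01% Tween-20. 50 nM THF-abasic TAMRA/BHQ-2 duplex substrate started the reaction.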
# Tags tell the direction and shape of the fitted curve.
# Chain of UniProt P36969 (P36969 whole entry, looked up): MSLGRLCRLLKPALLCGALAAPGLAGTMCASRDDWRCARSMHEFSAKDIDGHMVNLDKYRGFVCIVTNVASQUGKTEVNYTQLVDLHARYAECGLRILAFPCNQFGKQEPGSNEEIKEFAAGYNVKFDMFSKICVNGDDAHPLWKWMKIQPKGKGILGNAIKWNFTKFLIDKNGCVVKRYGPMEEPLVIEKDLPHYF
# Chain of UniProt Q99828 (Q99828 whole entry, looked up): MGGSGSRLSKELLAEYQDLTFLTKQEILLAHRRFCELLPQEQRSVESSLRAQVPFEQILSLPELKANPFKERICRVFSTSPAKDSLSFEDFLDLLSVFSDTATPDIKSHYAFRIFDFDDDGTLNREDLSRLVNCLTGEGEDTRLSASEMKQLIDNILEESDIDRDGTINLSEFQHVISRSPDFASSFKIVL
# Chain of UniProt P05177 (P05177 whole entry, looked up): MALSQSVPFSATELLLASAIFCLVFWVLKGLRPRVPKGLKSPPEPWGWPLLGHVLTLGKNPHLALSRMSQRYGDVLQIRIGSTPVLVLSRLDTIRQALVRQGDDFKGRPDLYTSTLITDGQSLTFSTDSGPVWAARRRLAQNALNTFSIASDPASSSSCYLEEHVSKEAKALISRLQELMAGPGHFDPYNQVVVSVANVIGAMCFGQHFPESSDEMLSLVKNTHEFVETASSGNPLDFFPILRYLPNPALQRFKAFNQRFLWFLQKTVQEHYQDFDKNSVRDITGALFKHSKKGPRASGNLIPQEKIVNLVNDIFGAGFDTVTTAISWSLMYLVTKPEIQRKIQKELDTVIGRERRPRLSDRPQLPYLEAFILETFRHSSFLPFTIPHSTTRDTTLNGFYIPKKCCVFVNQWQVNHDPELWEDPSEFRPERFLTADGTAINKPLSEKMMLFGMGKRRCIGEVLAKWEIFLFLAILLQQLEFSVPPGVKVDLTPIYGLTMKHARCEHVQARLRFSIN
structure (smiles),measurement,setting,value
O=C(O)CCCC[P+](c1ccccc1)(c1ccccc1)c1ccccc1,Potency,[1],"inconclusive [inhibitor, partial curve, poor fit]"
CC(=O)Nc1ccccc1,Potency,[2],inactive
same,activation,[3],inconclusive: 11.1%
same,activation,[4],inconclusive: 8.65%
NCc1ccc(S(N)(=O)=O)cc1,Potency,[5],inactive
CCCCOc1cc(C(=O)OCCN(CC)CC)ccc1N,Potency,[6],inactive
same,Potency,JCK,inactive
CCCCCCCC(=O)OCC(COC(=O)CCCCCCC)OC(=O)CCCCCCC,"activity, negative = inhibition",[2],inconclusive: 12.2%
same,activation,[4],inconclusive: -11%
same,Potency,PC49,inactive
Cc1onc(-c2c(Cl)cccc2Cl)c1C(=O)Cl,Potency,[7],"inconclusive [inhibitor, single point]"
CC(C)NCC(O)c1cc(O)cc(O)c1 (configuration not stated),Potency,[8],inactive
same,Potency,[9],inactive
same,Potency,[1],"inconclusive [inhibitor, partial curve, poor fit]"
O=C(O)CCCCC(CCSCc1ccccc1)SCc1ccccc1 (configuration not stated),Potency,[10],active: 20.2 µM
C/C(=C(\CCO)SS/C(CCO)=C(\C)N(C=O)Cc1cnc(C)nc1N)N(C=O)Cc1cnc(C)nc1N,Potency,[11],inactive
same,Potency,[1],inactive
Nc1c2c(nc3c1CCC3)CCCC2,Potency,[1],inactive
same,Potency,CP262,"inconclusive [inhibitor, single point]"
same,Potency,JCK,"inconclusive [inhibitor, single point]"
same,Potency,PC49,inconclusive [activator]
C[C@@H](N)C(=O)O,Potency,[5],inconclusive [decreasing]
NCCCC[C@H](N[C@@H](CCc1ccccc1)C(=O)O)C(=O)N1CCC[C@H]1C(=O)O,Potency,[7],inactive
same,Potency,CP262,inactive
CN(C)CCN(Cc1cccs1)c1ccccn1,Potency,[6],inactive
same,Potency,[12],"inconclusive [inhibitor, partial curve]"
same,Potency,[9],inactive
same,Potency,[13],inactive
same,Potency,JCK,"inconclusive [inhibitor, single point]"
CC(C)(C)NC(=O)[C@@H]1CN(Cc2cccnc2)CCN1C[C@@H](O)C[C@@H](Cc1ccccc1)C(=O)N[C@H]1c2ccccc2C[C@H]1O,Potency,[14],inactive
O=C(O)CCc1nc(-c2ccccc2)c(-c2ccccc2)o1,"activity, negative = inhibition",[15]; at 7.69 µM (top of the series),inactive: 5.68%
same,"activity, negative = inhibition",[15]; at 17.2 µM (top of the series),inactive: -0.803%
same,"activity, negative = inhibition",[15]; at 38 µM (top of the series),inactive: -12.8%
same,Potency,[13],inactive
same,Potency,[14],"inconclusive [inhibitor, partial curve]"
CO/N=C1\CN(c2nc3c(cc2F)c(=O)c(C(=O)O)cn3C2CC2)CC1CN (configuration not stated),Potency,[6],inactive
same,Potency,[10],"inconclusive [inhibitor, partial curve]"
same,Potency,JCK,"inconclusive [inhibitor, single point]"
CC(C)(C)c1ccc(C(O)CCCN2CCC(C(O)(c3ccccc3)c3ccccc3)CC2)cc1 (configuration not stated),Potency,[16],"inconclusive [inhibitor, full curve]"
same,Potency,[17],"inconclusive [inhibitor, full curve]"
same,Potency,[13],active: 7.36 µM
CCCc1c2oc(C(=O)O)cc(=O)c2cc2c(=O)cc(C(=O)O)n(CC)c12,Potency,[11],inactive
same,Potency,[10],"inconclusive [inhibitor, single point]"
C1=CC2C3C=CC(C3)C2C1 (configuration not stated),activation,[4],inconclusive: -5.9%
Cc1cccc(C)c1NC(=O)C(C)N (configuration not stated),Potency,[13],inactive
CN1CCN(C2=Nc3ccccc3Sc3ccc(Cl)cc32)CC1,Potency,CP262,"inconclusive [inhibitor, single point]"
C[N+](C)(C)CCCCCC[N+](C)(C)C,"activity, negative = inhibition",[15]; at 38 µM (top of the series),inconclusive: -69.3% [inhibitor]
same,Potency,[17],inactive
same,Potency,[12],inactive
same,Potency,[8],"inconclusive [inhibitor, partial curve, poor fit]"
same,Potency,[9],inactive
C[C@H](CS)C(=O)N1CCC[C@H]1C(=O)O,Potency,[16],"inconclusive [inhibitor, single point]"
